Assay results published in the supplement of paper PMC11417369.
The list shows a part of the results.

Tested on: PfSIP2 AP2 domain 1 (GST-tagged)
Assay: gcPBM binding intensity (ln(normalized median fluorescence intensity)); higher = stronger DNA binding
Procedure, shortened: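 Alexa488 anti-GST antibody, scanned at 488 nm, detected GST-tagged P. falciparum DNA-binding domains that had been expressed in E. coli and incubated for 1 h on an Agilent 4 × 180k array. The array carried primer-extended double-stranded 36-bp intergenic genomic probes and negative controls. Binding intensity is the highest Masliner-normalised natural-log median intensity across replicate spots of either orientation of each probe.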

| Sequence | gcPBM binding intensity (ln) |
| --- | --- |
| TACAAATGCGTATGTCAATATATGGAGAAATAAATA [TGCATGCA_negctrl_site290] | 7 |
| TGTATATGGTTTGTGCAAAAATTTATTAATGTGTAA [TGCATGCA_negctrl_site374] | 7.35 |
| TGAAAAATATAAGGTTGTACTTACATCGGGAATAAT [XGTACX_site4701] | 7.04 |
| AATTATGTGTGTCAATGTACACGATTTACATAATAT [XGTACX_site5150] | 7.03 |
| AATATATGGTTTCTTGATATTAAATTCAATTTAATG [CACACA_negctrl_site69] | 6.77 |
| ATCCGTGGGTGAAATACACACATGATAATGTGAATG [CACACA_site4662] | 6.65 |
| ATAAATGAACAAGTGGCACACACACCGTATAACTAA [CACACA_site9047] | 6.91 |
| AAAAAAAAAAAAAAAAGTACATATAATAAATAATGA [XGTACX_site7931] | 6.89 |
| TATATCTTAATATTTACACACATGCGCACCCATAAA [CACACA_site5349] | 12 |
| ACACATACAACGTGGTGTACAAATAATTATAATCAA [XGTACX_site2287] | 7.14 |
| AATCTTTGTAATAAAAGTACATTAATTTTATTAATA [XGTACX_site8325] | 7.37 |
| TAAGTATATATATTTACACACATTTGTTTTTTTTTA [CACACA_site3784] | 6.79 |
| TTTTAAATACTTTATTGTACATTATATATATATATA [XGTACX_site7021] | 9.44 |
| CATATGTTATATGTAGTGCATTACTATAGGATTTAT [GTGCAC_site9860] | 9.38 |
| TATTTTGCAAAATGTGCATGTTGTGTATTATGTGAC [TGCATGCA_site59] | 8.18 |
| GTATAATTGGAAATTACACACCTTAGAATGTAACAT [CACACA_site4059] | 6.79 |
| ATTATAATATATATATGTACATATATATATAATACT [XGTACX_site5092] | 7.15 |
| TATAATATACTATGTGGTACATATATATATTTATAG [XGTACX_site4556] | 7.03 |
| ATATATAATATTGGTGGTACAAGGGTATTTTATATT [XGTACX_site8215] | 7.13 |
| TCATTTATTTTTCTTTGTACACAAAAGTTTTTATGT [XGTACX_site690] | 7.22 |
| TGGTATGCAATATTGGTGCGTATATATTTTAAAGGG | 8.98 |
| TATTTTTAATTTTTTAATGGTTTAATATTTTTATAT [CACACA_negctrl_site1186] | 6.62 |

| Sequence | gcPBM binding intensity (ln) |
| --- | --- |
| TATTCTAAGATAAGTGGTACTTATATATAATATATA [XGTACX_site8316] | 7.03 |
| TCTTTAGCTTCTTCTTTTTTTTTTTTTTTTTTTTTT [XGTACX_negctrl_site518] | 8.48 |
| ATATATATATATATATGTACATAAACATATATATAT [XGTACX_site1064] | 9.93 |
| CTAATTGTTATTTTGTGTACTTATCATTCGAAATAT [XGTACX_site7963] | 7.13 |
| AAAAAACAAATAAGTAAACACACATATATAATATAT [CACACA_site8830] | 6.84 |
| TAGATGTAAGTACATACACACATATATAAATAAATA [CACACA_site8528] | 7.36 |
| ATATATATTTTAATTACACACAAAAAAAAAAAAAAA [CACACA_site4778] | 7.02 |
| AAAATAATGAAATGAAAAAAAAAAATTTAGATTCTA [CACACA_negctrl_site1385] | 6.52 |
| AAAAAAAAAAAAAATACACACATATTTTATAGGGGA [CACACA_site3261] | 7.19 |
| TATTTTTTGAAAAGTTCACACATCCAACTCGAGTTG [CACACA_site4412] | 6.98 |
| TTATATATTTTTAGGTGTACTTTTTTTTTTTTTTTT [XGTACX_site8164] | 7.63 |
| GTCATATATTTATGTACACACATATATATATTTATA [CACACA_site4911] | 7.13 |
| AGGATATATATATTCACACACACATGGAAATATATA [CACACA_site383] | 6.99 |
| ATATATATTTTATATTGTACTTATTATTTTTAGGGC [XGTACX_site723] | 7.35 |
| TATGAATATCTATACACACACATATAAATACACGCT [CACACA_site6853] | 7.08 |
| TTTGTTGGTATGGTTACACACATTTAGGAAATAAAA [CACACA_site1411] | 7.12 |
| TCTTATAAATTAAATATAAAAAAAAAAAAAAAAAAA [XGTACX_negctrl_site77] | 6.91 |
| AGTATTTTGTTTATCACACATATTGGAATTTTCAAT [CACACA_site4686] | 7.23 |
| AAAATAATTCAATGTAGTACAATACAAATTGAGAGA [XGTACX_site5991] | 6.76 |
| AAAATTATACACACACGTACATATAAATAGAAATAT [XGTACX_site1753] | 7.12 |
| AAATGGACAGTATAAAAATGGAGAATATAAAAATTT [CACACA_negctrl_site889] | 6.87 |
| GGTGTTTTTCACAGATGTACACAAATAAAAAAGAAA [XGTACX_site4454] | 7.16 |
